# Measured values: a collection of fitness landscapes (doi:10.1016/j.celrep.2020.107928)
# Whole data set: some 81,000 sequences, median “one-hybrid fitness for binding parS DNA” near -0.17, cut for the highest 2% near 0.51. The list shows a part of the results.
# B1: Caulobacter ParB omega fusion; a variant is named by its letters at X, in order, B8GW30 (parent)
# chain: MESVVVGEPGMSEGRRGLGRGLSALLGEVDAAPAQAPGEQLGGSREAPIEILQRNPDQPRRTFREEDLEDLSNSIREKGVLQPILVRPSPDTAGEYQIVAGERAWRAAQRAGLKTVPIMVRELDDLAVLEIGIIENVQRADLNVLEEALSYKVLMEKFERTQENIAQTIGKSXSHVANXMRLLXLPDEVQSYLVSGELTAXHARAIAAAADPVALAKQIIEGGLSVRETEALARKAPNLSAGKSKGGRPPRVKDTDTQALESDLSSVLGLDVSIDHRGSTGTLTITYATLEQLDDLCNRLTRGI
# Variants of: B1
# Experiment: one-hybrid fitness for binding parS DNA (scaled: cognate 1, non-cognate 0); higher = stronger binding
# Conditions: with parS DNA site
# Outline: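 Caulobacter ParB libraries with four specificity codons randomised were screened by bacterial one-hybrid selection in the E. coli USO strain, using a HIS3 reporter whose site lies 19 bp from the promoter. Selection ran for 48 hours at 37°C on M9 lacking histidine, with 0.1 mM IPTG and 5 mM 3-AT. Plasmids were Illumina-sequenced before and after selection, three replicate libraries were pooled, and variants with under 10 reads were dropped. Fitness is the log change in each variant's read ratio to wild type, rescaled against the cognate and non-cognate sites.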
row,Variant,one-hybrid fitness for binding parS DNA
1,PPSG,≤ 0.2
2,QTQA,≤ 0.2
3,YDLS,≤ 0.2
4,RNWY,0.275
5,IPAV,≤ 0.2
6,PNDT,≤ 0.2
7,QYKD,≤ 0.2
8,VTFM,≤ 0.2
9,MCTR,≤ 0.2
10,LRNP,≤ 0.2
11,CVKR,≤ 0.2
12,RYFT,0.792
13,PVAN,≤ 0.2
14,ADAT,≤ 0.2
15,DMDV,≤ 0.2
16,PSKV,≤ 0.2
17,KENP,≤ 0.2
18,WKTL,≤ 0.2
19,QGSI,≤ 0.2
20,RGWM,≤ 0.2
21,DVYT,≤ 0.2
22,QMTH,≤ 0.2
23,LFCR,≤ 0.2
24,LLRT,≤ 0.2
25,FVAV,≤ 0.2

row,Variant,one-hybrid fitness for binding parS DNA
1,RRKV,0.232
2,TTCI,≤ 0.2
3,SAWS,≤ 0.2
4,DGVC,≤ 0.2
5,IAPF,≤ 0.2
6,ETLE,≤ 0.2
7,HHIH,≤ 0.2
8,IRRS,≤ 0.2
9,PSHP,≤ 0.2
10,RTYK,≤ 0.2
11,HFPW,≤ 0.2
12,WQSR,≤ 0.2
13,QLYW,≤ 0.2
14,AVRN,≤ 0.2
15,QSGG,≤ 0.2
16,YMEW,≤ 0.2
17,YGEG,≤ 0.2
18,RPAN,≤ 0.2
19,RLSY,0.482
20,KHTD,≤ 0.2
21,KGAC,≤ 0.2
22,RQRG,0.97
23,GGAN,≤ 0.2
24,IMAG,≤ 0.2
25,PNAY,≤ 0.2

row,Variant,one-hybrid fitness for binding parS DNA
1,NARV,≤ 0.2
2,PAMR,≤ 0.2
3,TSPS,≤ 0.2
4,IPVC,≤ 0.2
5,IRKV,≤ 0.2
6,CWQS,≤ 0.2
7,NCHD,≤ 0.2
8,WSVK,≤ 0.2
9,PIGR,≤ 0.2
10,FNRR,≤ 0.2
11,NDYR,≤ 0.2
12,QVSA,≤ 0.2
13,AMKG,≤ 0.2
14,LLVS,≤ 0.2
15,KKTK,≤ 0.2
16,WMEW,≤ 0.2
17,PGAK,≤ 0.2
18,EWEL,≤ 0.2
19,LLVT,≤ 0.2
20,HCPY,≤ 0.2
21,SYVW,≤ 0.2
22,SNHA,≤ 0.2
23,NAPT,≤ 0.2
24,RITF,0.254
25,SINT,≤ 0.2

row,Variant,one-hybrid fitness for binding parS DNA
1,MVDS,≤ 0.2
2,TAKI,≤ 0.2
3,SYRE,≤ 0.2
4,FQKG,≤ 0.2
5,TDNT,≤ 0.2
6,SWKC,≤ 0.2
7,CNRS,≤ 0.2
8,NLLK,≤ 0.2
9,WDTL,≤ 0.2
10,MQEG,≤ 0.2
11,HHQS,≤ 0.2
12,ANPA,≤ 0.2
13,CRPR,≤ 0.2
14,KIWY,≤ 0.2
15,VTRD,≤ 0.2
16,QMNT,≤ 0.2
17,LESS,≤ 0.2
18,TRSM,≤ 0.2
19,PWVM,≤ 0.2
20,ARVV,≤ 0.2
21,YAGR,≤ 0.2
22,PHYT,≤ 0.2
23,AFIG,≤ 0.2
